Assay results taken from PubChem BioAssay AID624202 (National Center for Advancing Translational Sciences (NCATS), 2012).
The campaign covered roughly 380,000 compounds. About 4,000 (1.1%) were called active. Inconclusive results, whose numbers are uncertain, are shown with a selection of clear calls. Calls come from the whole dose curve; as a rule, active = well fitted activation curve with a large enough effect; inconclusive = small, poorly fitted or top-dose-only effect; inactive = no such curve, though single readings can be large or run the other way. Potencies beside an inconclusive call are fits to weak or partial responses and may not hold up.
Potency is the fitted concentration of half-maximal effect; tags give direction and shape of the fitted curve.

Assay: qHTS Assay to Identify Small Molecule Activators of BRCA1 Expression; note: nearly all actives have a fitted effect of over 80% in size
Details: MCF7-BRCA1-FFLuc reporter, luminescence, 48 h; activation: at 46.1 µM (top of the series), scaled: vehicle 0%, 10 µM genistein 100% unless noted
Procedure, shortened: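 Reporter cells (MCF7, BRCA1 promoter-firefly luciferase) received library compounds across a concentration series for 48 h. End-point luminescence was measured and concentration-effect curves derived after normalization.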
For `Cc1ccc(C(=O)Nc2ccc3c(c2)nc(CCNC(=O)c2ccco2)n3C)cc1`, the Potency was active: 7.08 µM.
In the case of `Cc1ccc2nc(NC(=O)COC(=O)c3ccccn3)sc2c1`, the Potency is reported as inconclusive: 14.1 µM [activator, partial curve, poor fit].
For `C#CCOc1nc(C)cc(C)c1S(=O)(=O)c1ccccc1C`, the Potency was “inactive”.
For `COc1cc2c(cc1NC(=O)C(C)Sc1cccc[n+]1[O-])oc1ccccc12` (centres undefined), the Potency was inconclusive: 14.1 µM [activator, single point].
In the case of `Nc1ccc(SCc2nc3cccc4c3n2CCC4)cc1`, the Potency is reported as inconclusive: 22.4 µM [activator, single point].
In the case of `Cc1nonc1C1CCCN1C(=O)c1cc(COc2ccc(F)cc2F)on1` (centres undefined), the Potency is reported as inconclusive: 3.98 µM [activator, partial curve, poor fit].
In the case of `COc1ccccc1NC(=O)C1CCN(C(=O)c2ccc(C(C)(C)C)cc2)CC1`, the Potency is reported as inconclusive: 2.24 µM [activator, full curve, poor fit].
With `O=C(NCCN1CCOCC1)c1ccccc1N1C(=O)[C@@H]2Cc3c([nH]c4ccccc34)C(c3ccc(F)cc3)N2C1=O` (some centres undefined) the Potency was “inactive”.
With `O=C(Nc1nc2ccc(Cl)cc2s1)c1ccco1` the activation was inconclusive: -42.2% [activator].
For `Cc1ccccc1C(=O)Nc1ccccc1`, the Potency was inconclusive: 17.8 µM [activator, single point].
In the case of `Cc1nc2ccc(NC(=O)c3ccco3)cc2s1`, the Potency is reported as inconclusive: 11.2 µM [activator, partial curve, poor fit].
In the case of `O=C(N/N=C/c1cccs1)c1cc(-c2ccncc2)nc2ccccc12`, the activation is reported as inconclusive: -78.4% [activator].
With `O=C(NC(=S)Nc1ccc2c(c1)OCCO2)c1ccccc1F` the Potency was inconclusive: 0.562 µM [activator, full curve, poor fit].
For `CN(N=O)c1ccc(C=C2C=Cc3ccccc32)cc1`, the Potency was inconclusive: 1.26 µM [activator, full curve, poor fit].
For `COc1ccc(C(=O)NC(=O)Nc2ncccc2C)cc1`, the Potency was active: 2.82 µM.
With `O=c1c2ccccc2nnn1COc1ccc(Cl)cc1Br` the Potency was inconclusive: 15.8 µM [activator, partial curve, poor fit].
With `N/C(=N\OC(=O)Cc1cccs1)c1cccc([N+](=O)[O-])c1` the Potency was inconclusive: 12.6 µM [activator, partial curve, poor fit].
In the case of `O=[N+]([O-])c1cccnc1Oc1ccc(OCc2ccccc2)cc1`, the Potency is reported as inconclusive: 11.2 µM [activator, partial curve, poor fit].
In the case of `CCOC(=O)c1c(C)[nH]c(C(=O)OCc2ccccc2F)c1C`, the Potency is reported as inconclusive: 2.24 µM [activator, full curve, poor fit].
For `COc1ccc(-c2nnc(SC(C)C(=O)Nc3cccc(Cl)c3)o2)cc1` (centres undefined), the Potency was inconclusive: 12.6 µM [activator, partial curve, poor fit].
With `CC(C)N=C1NN=C(c2cccs2)CS1` the Potency was inconclusive: 2.51 µM [activator, full curve, poor fit].
For `COc1cccc(NC(=O)CC(=O)c2ccccc2)c1`, the Potency was inconclusive: 10 µM [activator, partial curve, poor fit].
In the case of `COc1ccc(F)cc1-c1cc(C(=O)Nc2ccc(NC(C)=O)cc2)[nH]n1`, the Potency is reported as “inactive”.
For `Cc1cc(C(=O)NCCC2=CCCCC2)ccc1[N+](=O)[O-]`, the Potency was active: 5.01 µM.
For `CN(C)c1ccc(N=Cc2nc(-c3ccccc3)oc2OC(=O)c2ccccc2)cc1`, the Potency was “inactive”.
In the case of `OC1(C(F)(F)F)CC(c2ccc3ccccc3c2)=NO1` (centres undefined), the Potency is reported as inconclusive: 14.1 µM [activator, single point].
With `CCC1CSC(Nc2ccc(C(=O)/C=C/c3ccc(OC)c(OC)c3)cc2)=N1` (centres undefined) the Potency was “inactive”.
In the case of `O=C(OCC(=O)c1c[nH]c2ccccc12)c1cccc(O)c1`, the Potency is reported as inconclusive: 14.1 µM [activator, single point].
For `CC(Cc1ccccc1)NC(=O)c1cc2ccccc2o1` (centres undefined), the Potency was active: 7.08 µM.
For `COc1cc(C(=O)Nc2ccc3c(c2)OCCO3)ccc1OC(C)C`, the Potency was inconclusive: 8.91 µM [activator, partial curve, poor fit].
In the case of `O=C(Nc1ccc(N2CCCC2)cc1)c1cc2ccccc2o1`, the Potency is reported as active: 8.91 µM.
With `Cc1ccc(Cc2c(-c3ccco3)nc3c4ccccc4ccn23)cc1` the Potency was inconclusive: 0.631 µM [activator, full curve, poor fit].
For `Cc1ccc(C(=O)NCCCN2CCOCC2)c(Cl)c1`, the Potency was inconclusive: 20 µM [activator, single point].
For `COCC(=O)Nc1nnc(SCC(=O)N2CCCCC2)s1`, the Potency was “inactive”.
With `c1ccc(-c2cc3nc(NCc4ccc5c(c4)OCO5)ccn3n2)cc1` the Potency was inconclusive: 2 µM [activator, full curve, poor fit].
With `Cc1occc1C(=O)Nc1cc(C(C)(C)C)on1` the Potency was inconclusive: 3.16 µM [activator, full curve, poor fit].
With `NC(=O)C1CC(=O)N(c2ccc(OCc3ccc(Cl)cc3)cc2)C1` (centres undefined) the Potency was inconclusive: 25.1 µM [activator, single point].
For `COc1ccc2c(C(=O)c3ccc(C)cc3)n(Cc3ccc(C(N)=O)cc3)[n+]([O-])c2c1`, the Potency was inconclusive: 31.6 µM [activator, single point].
For `S=C(Nc1ccc(Cl)cc1Cl)N1CCCCC1`, the Potency was inconclusive: 14.1 µM [activator, single point].
In the case of `Brc1ccc(-c2nnc(-c3cccnc3)o2)cc1`, the Potency is reported as active: 4.47 µM.
With `CCn1nc(NC(C)=O)c2cc3ccc(C)cc3nc21` the Potency was “inactive”.
For `COc1ccc(C2(C(=O)c3ccccc3)C(=O)c3ccccc3C2=O)cc1`, the Potency was inconclusive: 11.2 µM [activator, partial curve, poor fit].
With `NC(=O)c1nsnc1-c1ccccc1O` the Potency was “inactive”.
With `Cc1ccc(-c2csc(NC(=O)c3ccc(Br)cc3)c2C(=O)O)cc1` the Potency was active: 2 µM.
For `Clc1ccc(OCc2nc3ccccc3[nH]2)cc1`, the Potency was active: 3.16 µM.
For `O=C(Nc1cc(C(=O)N2CCCC2)ccc1N1CCCC1)c1ccccc1F`, the Potency was “inactive”.
For `CCc1cc(C(=O)NNC(=S)Nc2ccccc2C)cs1`, the Potency was active: 10 µM.
For `O=C(C1CCCCC1)N(Cc1nc2sc3c(c2c(=O)[nH]1)CCCC3)Cc1cccs1`, the Potency was “inactive”.
In the case of `CCN(CC)C(=O)CSc1nc(-c2ccco2)cc(C(F)(F)F)c1C#N`, the Potency is reported as “inactive”.
In the case of `CCOC(=O)c1ccc(-c2ccc3c(c2)CCC3)nc1C`, the Potency is reported as active: 10 µM.
In the case of `Cc1ccccc1C(=O)NNS(=O)(=O)c1cccc([N+](=O)[O-])c1`, the Potency is reported as “inactive”.
With `O=C(NC1=NCCS1)c1ccc(Br)s1` the Potency was active: 3.16 µM.
In the case of `CCC1COC(c2cccn2Cc2ccccc2Cl)=N1` (centres undefined), the Potency is reported as “inactive”.
For `N/C(=N\OC(=O)c1csnn1)c1ccc(C(F)(F)F)cc1`, the Potency was active: 11.2 µM.
In the case of `Cc1ccc(NC(=O)N(O)C2CCCCC2C#N)cc1` (centres undefined), the Potency is reported as inconclusive: 35.5 µM [activator, single point].
With `COc1ccc(C(NC(=O)C(C)C)c2ccc3cccnc3c2O)cc1` (centres undefined) the Potency was “inactive”.
In the case of `Cc1ccccc1NC(=S)N(CCN1CCOCC1)Cc1ccccc1F`, the Potency is reported as “inactive”.
For `CCCc1nc2c(=O)n(C)c(=O)nc-2n(C)n1`, the Potency was “inactive”.
For `COc1cc2ccccc2cc1C(=O)NC1CCCCC1`, the Potency was inconclusive: 8.91 µM [activator, partial curve, poor fit].
With `O=C(c1ccco1)N1CCN(C(=O)c2ccc(COc3ccc4c(c3)CCC4)o2)CC1` the Potency was inconclusive: 1.26 µM [activator, full curve, poor fit].
With `Cc1cc(CN(C)C(=O)c2cc(COc3ccc(F)cc3Cl)on2)n[nH]1` the Potency was active: 7.94 µM.
For `COc1cccc(S(=O)(=O)NCc2ccc(C(=O)N3CCN(c4ccccc4)CC3)cc2)c1`, the Potency was “inactive”.
With `Cc1noc(-c2ccc(N3CCCCC3)c([N+](=O)[O-])c2)n1` the Potency was inconclusive: 7.94 µM [activator, partial curve, poor fit].
In the case of `Cn1c2ccccc2c(=O)c2ccc(C#Cc3ccccn3)cc21`, the Potency is reported as active: 11.2 µM.
In the case of `Cc1ccccc1N1CN(Cc2ccco2)CNC1=S`, the Potency is reported as “inactive”.
For `COc1ccccc1C(=O)Nc1ccc(N2CCN(S(C)(=O)=O)CC2)cc1`, the Potency was active: 11.2 µM.
With `COC(=O)CCN(C1CCCCC1)S(=O)(=O)c1ccc(S(=O)(=O)N2CCCCC2)cc1` the Potency was “inactive”.
With `O=C(Nc1ccsn1)c1ccc(Cl)cc1Cl` the Potency was active: 2.51 µM.
In the case of `Cc1cc(C)n(-c2nc(NC(C)C)nc(NC(C)(C)C)n2)n1`, the Potency is reported as “inactive”.
In the case of `Clc1ccc(-c2nnc(-c3ccc(Br)o3)o2)c(Cl)c1`, the Potency is reported as inconclusive: 2 µM [activator, partial curve, poor fit].
In the case of `CC(=O)c1ccc(NC(=O)CSC(C)C)cc1`, the Potency is reported as inconclusive: 35.5 µM [activator, single point].
For `Cc1nc(/C(N)=N/OC(=O)c2ccccc2Cl)c(C(F)(F)F)o1`, the Potency was active: 11.2 µM.
In the case of `S=C(NN=Cc1ccc2c(c1)OCO2)NN=Cc1ccc2c(c1)OCO2`, the Potency is reported as “inactive”.
For `Nc1c(-c2cccs2)nc2ccccn12`, the Potency was “inactive”.
In the case of `CCC(NS(=O)(=O)c1ccc(C)cc1)C(=O)Nc1ccc(NC(C)=O)cc1` (centres undefined), the Potency is reported as “inactive”.
For `CCCC(=O)Nc1nc2ccc(OC)cc2s1`, the Potency was inconclusive: 2.24 µM [activator, full curve, poor fit].
In the case of `COc1cc(C(F)(F)F)ccc1C(=O)NCCc1ccco1`, the Potency is reported as active: 6.31 µM.
With `C=CCn1c(C)cc(C(=O)COc2ncnc3sccc23)c1C` the activation was inconclusive: -18.9% [activator].
In the case of `O=C(Nc1ccc2c(c1)OCO2)c1cc(-c2ccc(O)cc2)on1`, the Potency is reported as inconclusive: 2.51 µM [activator, partial curve, poor fit].
